{"source": "PubChem BioAssay (NCATS)", "note": "This list was built around the results that the source calls inconclusive (neither active nor inactive); the mix of calls is not that of the screen. No potency is given beside an inconclusive call; the fits are too rough. Activity calls are given as the source filed them. Calls follow the shape of the dose curve; as a rule, active = well fitted cell-killing curve with a large enough effect; inconclusive = small, poorly fitted or top-dose-only effect; inactive = no such curve, though single readings can be large or run the other way. Potency is read from the fitted curve at half-maximal effect; tags tell the direction and shape of the fitted curve.", "data": [{"test": "qHTS of pediatric cancer cell lines to identify multiple opportunities for drug repurposing: Primary screen for OHS-50 cells (AID 1347103); also: nearly all actives have a fitted effect of over 40% in size", "conditions": "OHS-50 osteosarcoma viability, CellTiter-Glo luminescence, 48 h; series mostly up to 57.3 µM; activity change, negative = cytotoxic: at the top concentration", "source_text": "Drug repurposing or repositioning has been offered as a strategy for drug development in oncology programs. This approach has special potential for childhood cancers and other rare or orphan diseases, where the expected return on new drug development has been a disincentive to pharmaceuticals.\nIn this project we exploit the poly-pharmacology of drugs to discover new indications via phenotypic screening of a panel of 19 well-characterized cell lines derived from solid tumors seen in children and adolescents. The goal is to identify approved drugs with previously unrecognized anticancer properties that has the potential to reveal new mechanisms and biological processes involved in carcinogenesis or drug resistance. We employed a titration-based paradigm (quantitative high-throughput screening or qHTS), where all compounds were tested at multiple concentrations for their effect on cell viability. Concentration-response curves (CRCs) were derived directly from the primary screen, and both potency and efficacy values were used to identify compounds with robust bioactivity profiles. We screened the NIH Chemical Genomics Center (NCGC) Pharmaceutical Collection (NPC) and Mechanism Interrogation Plate (MIPE) small molecule collections of approved and investigational compounds against these cell lines; and measured metabolically active cells after 48 hours of compound treatment as a proxy for cell viability.\nAssay Submitter: Nathalia J. Martinez, National Center for Advancing Translational Sciences, National Institutes of Health, Rockville, MD, USA; email: natalia.martinez@nih.gov\n[1] Shen, M et al. Quantitative high-throughput phenotypic screening of pediatric cancer cell lines identifies multiple opportunities for drug repurposing. Oncotarget 2017 Dec 19;9(4):4758-4772. PMID 29435139.\nThe cells were obtained from University of North Carolina (UNC), Pediatric Preclinical Testing Program (PPT), and Coriell Institute (CI).\nqHTS cell viability assay:\nCells were assayed in growth media at a density of 500-1,000 cells/well. Five microliters of cells were dispensed into 1,536-well, white, solid-bottom, TC-treated plates (Greiner Bio One) using a multidrop dispenser and incubated at 37 degrees C, 5% CO2, under a humidified atmosphere for 5 hours. Twenty-three nanoliters of compounds and controls (neutral control DMSO or positive control bortezomib at final concentration of 2.3 µM) were subsequently transferred by Kalypsys pintool. For primary screens, the MIPE collection was tested at 11-point dilutions (final concentrations range from 0.78 nM to 46 µM) and the NPC collection at 8-point dilutions (final concentrations range from 0.59 nM to 46 µM). Compounds tested in follow-up screens were assayed at 11-point dilutions. Cells were incubated for 48 hours, followed by addition of 3 µL of CellTiter-Glo (Promega). After a 15 min incubation at room temperature, samples were analyzed for luminescence intensity using a ViewLux High-throughput CCD imager equipped with clear filters.", "values": [{"smiles": "Nc1cc(C(F)(F)F)c(-c2cc(N3CCOCC3)nc(N3CCOCC3)n2)cn1", "Potency": "active: 0.153 µM"}, {"smiles": "O=C(Nc1ccc(Cl)c(Cl)c1)C1CC1", "Potency": "inconclusive [cytotoxic, partial curve]"}, {"smiles": "CN(Cc1ccc(C(C)(C)C)cc1)Cc1cccc2ccccc12", "Potency": "inconclusive [cytotoxic, single point]"}, {"smiles": "CC(=O)Oc1cccc(O)c1", "Potency": "inconclusive [cytotoxic, partial curve]"}, {"smiles": "CN1CCCCC1CCN1c2ccccc2Sc2ccc(S(C)=O)cc21", "note": "(stereo not given)", "Potency": "inconclusive [cytotoxic, partial curve]"}, {"smiles": "C=CCOc1cc(Cl)ccc1C(=O)NCCN(CC)CC", "Potency": "inconclusive [cytotoxic, partial curve, poor fit]"}, {"smiles": "CCOC(=O)Cn1cccc1-c1nc(-c2ccc(OC)cc2)c(-c2ccc(OC)cc2)s1", "Potency": "inconclusive [cytotoxic, partial curve]"}, {"smiles": "CCCC(=O)O[C@]1(C(=O)CC)CC[C@H]2[C@@H]3CCC4=CC(=O)CC[C@]4(C)[C@H]3[C@@H](O)C[C@@]21C", "Potency": "inconclusive [cytotoxic, partial curve]"}, {"smiles": "CS(=O)(=O)c1ccc([C@@H](O)[C@@H](CF)NC(=O)C(Cl)Cl)cc1", "activity change, negative = cytotoxic": "inactive: 91.4%"}, {"smiles": "c1ccc(C(O[C@H]2CCCN(CCc3ccc4c(c3)OCO4)C2)c2ccccc2)cc1", "Potency": "inconclusive [cytotoxic, partial curve]"}, {"smiles": "CCCCCCCC/C=C\\CCCCCCCC(=O)NCc1ccc(O)c(OC)c1", "Potency": "inconclusive [cytotoxic, single point]"}, {"smiles": "O=C(NCc1ccccc1)[C@H](Cc1ccccc1)NC(=O)[C@@H]1O[C@@H]1C(=O)NCCc1ccc(O)cc1", "Potency": "inconclusive [cytotoxic, single point]"}, {"smiles": "O=C(CCCN1CCC(O)(c2ccc(Br)cc2)CC1)c1ccc(F)cc1", "Potency": "inconclusive [cytotoxic, partial curve, poor fit]"}, {"smiles": "Cc1cccc(N(C)C(=S)Oc2ccc3c(c2)CCC3)c1", "Potency": "inconclusive [cytotoxic, single point]"}, {"smiles": "COc1cc(O)c2c(c1)C1OC1C[C@H](O)[C@H](O)C(=O)C=CC[C@H](C)OC2=O", "note": "(stereo not given in full)", "Potency": "active: 19.3 µM"}, {"smiles": "CC(C)(C)c1nnc(NS(=O)(=O)c2ccccc2)s1", "activity change, negative = cytotoxic": "inactive: 68.7%"}, {"smiles": "C[C@@H]1CN(CCCn2c3ccccc3c3ccccc32)C[C@H](C)N1", "Potency": "inconclusive [cytotoxic, partial curve, poor fit]"}, {"smiles": "CC(C)(O)c1ccccc1CC[C@@H](SCC1(CC(=O)O)CC1)c1cccc(/C=C/c2ccc3ccc(Cl)cc3n2)c1", "activity change, negative = cytotoxic": "inactive: 13.6%"}, {"smiles": "C[C@@H](CN(C)C)CN1c2ccccc2Sc2ccccc21", "Potency": "active: 21.9 µM"}, {"smiles": "OCCN1CCN(CC/C=C2/c3ccccc3Sc3ccc(C(F)(F)F)cc32)CC1", "Potency": "active: 24.6 µM"}, {"smiles": "C[C@@]12O[C@@H](C[C@]1(O)CO)n1c3ccccc3c3c4c(c5c6ccccc6n2c5c31)CNC4=O", "Potency": "active: 0.217 µM"}, {"smiles": "O=C(CCC1CCN(Cc2ccccc2)CC1)c1ccc2c(c1)NCCCC2", "Potency": "inconclusive [cytotoxic, partial curve]"}, {"smiles": "CCCN(CCc1cccs1)[C@H]1CCc2c(O)cccc2C1", "Potency": "inconclusive [cytotoxic, single point]"}, {"smiles": "OC(C#CCN1CCCC1)(c1ccccc1)c1ccccc1", "Potency": "inconclusive [cytotoxic, partial curve, poor fit]"}, {"smiles": "COC[C@H](NC(=O)c1cnc(C)s1)C(=O)N[C@@H](COC)C(=O)N[C@@H](Cc1ccccc1)C(=O)[C@@]1(C)CO1", "Potency": "active: 0.193 µM"}, {"smiles": "CC(O)(C#Cc1ccc2c(c1)N(c1nc(N)ncc1Cl)CC2)c1nccs1", "note": "(stereo not given)", "Potency": "active: 24.3 µM"}, {"smiles": "C=CC(=O)N1CCC[C@@H](n2nc(-c3ccc(Oc4ccccc4)cc3)c3c(N)ncnc32)C1", "Potency": "inconclusive [cytotoxic, single point]"}, {"smiles": "OCc1c[nH]c2ccccc12", "activity change, negative = cytotoxic": "inactive: -19.6% [at 116 µM]"}, {"smiles": "CC(C)n1nc(-c2cc3cc(O)ccc3[nH]2)c2c(N)ncnc21", "Potency": "active: 0.437 µM"}, {"smiles": "CN1CCC(N(Cc2cccs2)c2ccccc2)CC1", "Potency": "inconclusive [cytotoxic, partial curve]"}, {"smiles": "O=C(CCCN1CC=C(n2c(=O)[nH]c3ccccc32)CC1)c1ccc(F)cc1", "Potency": "inconclusive [cytotoxic, partial curve, poor fit]"}, {"smiles": "CN(C)CCCN=c1c2ccccc2n(C)c2[nH]c(=O)n(C)c(=O)c12", "Potency": "inconclusive [cytotoxic, single point]"}, {"smiles": "Cc1ccc(CCn2c3c(c4cc(Cl)ccc42)CN(C)CC3)cn1", "Potency": "inconclusive [cytotoxic, single point]"}, {"smiles": "O=C1NC2CCCCN2C12CCN(CCCN1c3ccccc3CCc3ccc(Cl)cc31)CC2", "note": "(stereo not given)", "Potency": "active: 27.6 µM"}, {"smiles": "CN1CCN(C2=Nc3cc(F)ccc3Cc3ccccc32)CC1", "Potency": "inconclusive [cytotoxic, partial curve]"}, {"smiles": "CCCCOc1ccc(OCCCN2CCOCC2)cc1", "Potency": "inconclusive [cytotoxic, single point]"}, {"smiles": "C=C1C(=CC=C2CCC[C@]3(C)[C@@H]([C@H](C)C=C[C@H](C)C(C)C)CC[C@@H]23)C[C@@H](O)C[C@@H]1O", "Potency": "active: 0.685 µM"}, {"smiles": "CC(C)(Cc1c[nH]c2ccccc12)NCC(O)COc1ccccc1C#N", "note": "(stereo not given)", "Potency": "inconclusive [cytotoxic, single point]"}, {"smiles": "CNC(=O)c1cc(Oc2ccc(NC(=O)Nc3cc(C(C)(C)C)nn3-c3ccc4ncccc4c3)c(F)c2)ccn1", "Potency": "active: 27.3 µM"}, {"smiles": "C[C@H]1C[C@H]2[C@@H]3CCC4=CC(=O)C=C[C@]4(C)[C@H]3C(=O)C[C@]2(C)[C@@]1(O)C(=O)CO", "activity change, negative = cytotoxic": "inactive: -1.29%"}]}]}
